Data as given in PubChem BioAssay AID624202 (National Center for Advancing Translational Sciences (NCATS), 2012).
Among all 380,000 compounds or so, about 4,000 (1.1%) were called active. The shares of active, inactive and inconclusive entries below differ from those in the screen. Calls follow the shape of the dose curve; as a rule, active = well fitted activation curve with a large enough effect; inconclusive = small, poorly fitted or top-dose-only effect; inactive = no such curve, though single readings can be large or run the other way. Where the call is inconclusive, the potency comes from a doubtful curve fit.

Test: qHTS Assay to Identify Small Molecule Activators of BRCA1 Expression; also: nearly all actives have a fitted effect of over 80% in size
Conditions: MCF7-BRCA1-FFLuc reporter, luminescence, 48 h; series mostly up to 46.1 µM
In short: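 Reporter cells (MCF7, BRCA1 promoter-firefly luciferase) received library compounds across a concentration series for 48 h. End-point luminescence was measured and concentration-effect curves derived after normalization.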
Potency is read from the fitted curve at half-maximal effect; tags tell the direction and shape of the fitted curve.

Which Potency does the source give for `O=C(/C=C/c1ccc(-c2cccc([N+](=O)[O-])c2)o1)N1CCOCC1` here?
Its Potency is inconclusive: 11.2 µM [activator, partial curve, poor fit].

For `COc1ccc(C2=NOC(CN3C(=O)c4ccccc4S3(=O)=O)C2)cc1` (centres undefined), which Potency is on record?
The Potency was active: 2.82 µM.

With `C/C(=N\O)c1sc(-c2ccccc2)nc1C` as the molecule, how does the Potency read?
Its Potency is active: 2.51 µM.

Which Potency does the source give for `CCc1ccc2oc(C(=O)Nc3nonc3C)c(C)c2c1` here?
The Potency was inconclusive: 35.5 µM [activator, single point].

Which Potency does the source give for `O=C1c2ccccc2-c2onc3ccc(N4CCCC4)c1c23` here?
Its Potency is “inactive”.

For `O=c1[nH]c(/C=C/c2ccc(Br)cc2)nc2ccccc12`, which Potency is on record?
The Potency was inconclusive: 4.47 µM [activator, full curve, poor fit].

Which Potency does the source give for `CC(=O)N1CCN(C(=O)CNC(=O)c2cccs2)CC1` here?
Its Potency is “inactive”.

For `COc1ccc(CC(=O)NNC(=O)CSc2nnc(Cc3ccc(OC)cc3)n2-c2ccccc2)cc1`, which Potency is on record?
The Potency was inconclusive: 35.5 µM [activator, single point].

For `CC(C)(C)SCCNC(=O)/C=C/c1ccc(F)cc1`, which Potency is on record?
The Potency was inconclusive: 12.6 µM [activator, partial curve, poor fit].

Which Potency does the source give for `COc1ccccc1OCCCC(=O)Nc1nccs1` here?
The Potency was inconclusive: 7.94 µM [activator, partial curve, poor fit].

With `Brc1ccc(-c2cn3cc(Cc4ccccc4)sc3n2)cc1` as the molecule, how does the Potency read?
Its Potency is inconclusive: 1 µM [activator, full curve, poor fit].

With `CCOc1ccc(NC(=O)Cn2ncc3ccccc32)cc1` as the molecule, how does the Potency read?
The Potency was inconclusive: 11.2 µM [activator, partial curve, poor fit].

With `CC1(C)CC(=O)c2sc(NC(=O)C3COc4ccccc4O3)nc2C1` (centres undefined) as the molecule, how does the Potency read?
Its Potency is inconclusive: 12.6 µM [activator, partial curve, poor fit].

Which Potency does the source give for `COC(=O)c1[nH]c2cc(C)ccc2c1NC(=O)CN1CCc2cc(OC)c(OC)cc2C1` here?
The Potency was “inactive”.

For `COc1ccc2[nH]c(C(=O)Nc3ccc4c(c3)OCO4)cc2c1`, which Potency is on record?
Its Potency is inconclusive: 17.8 µM [activator, partial curve, poor fit].

For `CCSc1nnc(NC(=O)c2cc(C)oc2C)s1`, which Potency is on record?
Its Potency is inconclusive: 7.94 µM [activator, partial curve, poor fit].

For `Nc1ccc2nc(SCc3cccc(F)c3)sc2c1`, which Potency is on record?
The Potency was inconclusive: 2 µM [activator, full curve, poor fit].

With `CC(C)c1ccc(-n2cnn(-c3ncccc3[N+](=O)[O-])c2=O)cc1` as the molecule, how does the Potency read?
The Potency was inconclusive: 1.26 µM [activator, full curve, poor fit].

For `COc1ccc(-n2nc(C(=O)NCC(=O)N3CCC(C)CC3)c3ccccc3c2=O)cc1`, which Potency is on record?
Its Potency is “inactive”.
